Measurements from patent US20210238308A1 (Chugai, published 2021).

B1: MRAH-G1d/MRAL-KT0 Q438S (antibody, human IgG1, kappa)
heavy: QVQLQESGPGLVRPSQTLSLTCTVSGYSITSDHAWSWVRQPPGRGLEWIGYISYSGITTYNPSLKSRVTMLRDTSKNQFSLRLSSVTAADTAVYYCARSLARTTAMDYWGQGSLVTVSS[human IgG1 constant region with Q438S (EU numbers) omitted here]
light: DIQMTQSPSSLSASVGDRVTITCRASQDISSYLNWYQQKPGKAPKLLIYYTSRLHSGVPSRFSGSGSGTDFTFTISSLQPEDIATYYCQQGNTLPYTFGQGTKVEIKRTVAAPSVFIFPPSDEQLKSGTASVVCLLNNFYPREAKVQWKVDNALQSGNSQESVTEQDSKDSTYSLSSTLTLSKADYEKHKVYACEVTHQGLSSPVTKSFNRGEC
B2: MRAH-G1d/MRAL-KT0 Q438T (antibody, human IgG1, kappa)
heavy: QVQLQESGPGLVRPSQTLSLTCTVSGYSITSDHAWSWVRQPPGRGLEWIGYISYSGITTYNPSLKSRVTMLRDTSKNQFSLRLSSVTAADTAVYYCARSLARTTAMDYWGQGSLVTVSS[human IgG1 constant region with Q438T (EU numbers) omitted here]
light: DIQMTQSPSSLSASVGDRVTITCRASQDISSYLNWYQQKPGKAPKLLIYYTSRLHSGVPSRFSGSGSGTDFTFTISSLQPEDIATYYCQQGNTLPYTFGQGTKVEIKRTVAAPSVFIFPPSDEQLKSGTASVVCLLNNFYPREAKVQWKVDNALQSGNSQESVTEQDSKDSTYSLSSTLTLSKADYEKHKVYACEVTHQGLSSPVTKSFNRGEC
B3: MRAH-G1d/MRAL-KT0 Q438Y (antibody, human IgG1, kappa)
heavy: QVQLQESGPGLVRPSQTLSLTCTVSGYSITSDHAWSWVRQPPGRGLEWIGYISYSGITTYNPSLKSRVTMLRDTSKNQFSLRLSSVTAADTAVYYCARSLARTTAMDYWGQGSLVTVSS[human IgG1 constant region with Q438Y (EU numbers) omitted here]
light: DIQMTQSPSSLSASVGDRVTITCRASQDISSYLNWYQQKPGKAPKLLIYYTSRLHSGVPSRFSGSGSGTDFTFTISSLQPEDIATYYCQQGNTLPYTFGQGTKVEIKRTVAAPSVFIFPPSDEQLKSGTASVVCLLNNFYPREAKVQWKVDNALQSGNSQESVTEQDSKDSTYSLSSTLTLSKADYEKHKVYACEVTHQGLSSPVTKSFNRGEC
B4: MRAH-G1d/MRAL-KT0 S440A (antibody)
heavy: QVQLQESGPGLVRPSQTLSLTCTVSGYSITSDHAWSWVRQPPGRGLEWIGYISYSGITTYNPSLKSRVTMLRDTSKNQFSLRLSSVTAADTAVYYCARSLARTTAMDYWGQGSLVTVSS[human IgG1 constant region with S440A (EU numbers) omitted here]
light: DIQMTQSPSSLSASVGDRVTITCRASQDISSYLNWYQQKPGKAPKLLIYYTSRLHSGVPSRFSGSGSGTDFTFTISSLQPEDIATYYCQQGNTLPYTFGQGTKVEIKRTVAAPSVFIFPPSDEQLKSGTASVVCLLNNFYPREAKVQWKVDNALQSGNSQESVTEQDSKDSTYSLSSTLTLSKADYEKHKVYACEVTHQGLSSPVTKSFNRGEC
B5: MRAH-G1d/MRAL-KT0 S440D (antibody)
heavy: QVQLQESGPGLVRPSQTLSLTCTVSGYSITSDHAWSWVRQPPGRGLEWIGYISYSGITTYNPSLKSRVTMLRDTSKNQFSLRLSSVTAADTAVYYCARSLARTTAMDYWGQGSLVTVSS[human IgG1 constant region with S440D (EU numbers) omitted here]
light: DIQMTQSPSSLSASVGDRVTITCRASQDISSYLNWYQQKPGKAPKLLIYYTSRLHSGVPSRFSGSGSGTDFTFTISSLQPEDIATYYCQQGNTLPYTFGQGTKVEIKRTVAAPSVFIFPPSDEQLKSGTASVVCLLNNFYPREAKVQWKVDNALQSGNSQESVTEQDSKDSTYSLSSTLTLSKADYEKHKVYACEVTHQGLSSPVTKSFNRGEC
B6: MRAH-G1d/MRAL-KT0 S440F (antibody)
heavy: QVQLQESGPGLVRPSQTLSLTCTVSGYSITSDHAWSWVRQPPGRGLEWIGYISYSGITTYNPSLKSRVTMLRDTSKNQFSLRLSSVTAADTAVYYCARSLARTTAMDYWGQGSLVTVSS[human IgG1 constant region with S440F (EU numbers) omitted here]
light: DIQMTQSPSSLSASVGDRVTITCRASQDISSYLNWYQQKPGKAPKLLIYYTSRLHSGVPSRFSGSGSGTDFTFTISSLQPEDIATYYCQQGNTLPYTFGQGTKVEIKRTVAAPSVFIFPPSDEQLKSGTASVVCLLNNFYPREAKVQWKVDNALQSGNSQESVTEQDSKDSTYSLSSTLTLSKADYEKHKVYACEVTHQGLSSPVTKSFNRGEC
B7: MRAH-G1d/MRAL-KT0 S440H (antibody)
heavy: QVQLQESGPGLVRPSQTLSLTCTVSGYSITSDHAWSWVRQPPGRGLEWIGYISYSGITTYNPSLKSRVTMLRDTSKNQFSLRLSSVTAADTAVYYCARSLARTTAMDYWGQGSLVTVSS[human IgG1 constant region with S440H (EU numbers) omitted here]
light: DIQMTQSPSSLSASVGDRVTITCRASQDISSYLNWYQQKPGKAPKLLIYYTSRLHSGVPSRFSGSGSGTDFTFTISSLQPEDIATYYCQQGNTLPYTFGQGTKVEIKRTVAAPSVFIFPPSDEQLKSGTASVVCLLNNFYPREAKVQWKVDNALQSGNSQESVTEQDSKDSTYSLSSTLTLSKADYEKHKVYACEVTHQGLSSPVTKSFNRGEC
B8: MRAH-G1d/MRAL-KT0 S440K (antibody)
heavy: QVQLQESGPGLVRPSQTLSLTCTVSGYSITSDHAWSWVRQPPGRGLEWIGYISYSGITTYNPSLKSRVTMLRDTSKNQFSLRLSSVTAADTAVYYCARSLARTTAMDYWGQGSLVTVSS[human IgG1 constant region with S440K (EU numbers) omitted here]
light: DIQMTQSPSSLSASVGDRVTITCRASQDISSYLNWYQQKPGKAPKLLIYYTSRLHSGVPSRFSGSGSGTDFTFTISSLQPEDIATYYCQQGNTLPYTFGQGTKVEIKRTVAAPSVFIFPPSDEQLKSGTASVVCLLNNFYPREAKVQWKVDNALQSGNSQESVTEQDSKDSTYSLSSTLTLSKADYEKHKVYACEVTHQGLSSPVTKSFNRGEC
B9: MRAH-G1d/MRAL-KT0 S440L (antibody)
heavy: QVQLQESGPGLVRPSQTLSLTCTVSGYSITSDHAWSWVRQPPGRGLEWIGYISYSGITTYNPSLKSRVTMLRDTSKNQFSLRLSSVTAADTAVYYCARSLARTTAMDYWGQGSLVTVSS[human IgG1 constant region with S440L (EU numbers) omitted here]
light: DIQMTQSPSSLSASVGDRVTITCRASQDISSYLNWYQQKPGKAPKLLIYYTSRLHSGVPSRFSGSGSGTDFTFTISSLQPEDIATYYCQQGNTLPYTFGQGTKVEIKRTVAAPSVFIFPPSDEQLKSGTASVVCLLNNFYPREAKVQWKVDNALQSGNSQESVTEQDSKDSTYSLSSTLTLSKADYEKHKVYACEVTHQGLSSPVTKSFNRGEC
B10: MRAH-G1d/MRAL-KT0 S440M (antibody)
heavy: QVQLQESGPGLVRPSQTLSLTCTVSGYSITSDHAWSWVRQPPGRGLEWIGYISYSGITTYNPSLKSRVTMLRDTSKNQFSLRLSSVTAADTAVYYCARSLARTTAMDYWGQGSLVTVSS[human IgG1 constant region with S440M (EU numbers) omitted here]
light: DIQMTQSPSSLSASVGDRVTITCRASQDISSYLNWYQQKPGKAPKLLIYYTSRLHSGVPSRFSGSGSGTDFTFTISSLQPEDIATYYCQQGNTLPYTFGQGTKVEIKRTVAAPSVFIFPPSDEQLKSGTASVVCLLNNFYPREAKVQWKVDNALQSGNSQESVTEQDSKDSTYSLSSTLTLSKADYEKHKVYACEVTHQGLSSPVTKSFNRGEC
B11: MRAH-G1d/MRAL-KT0 S440P (antibody)
heavy: QVQLQESGPGLVRPSQTLSLTCTVSGYSITSDHAWSWVRQPPGRGLEWIGYISYSGITTYNPSLKSRVTMLRDTSKNQFSLRLSSVTAADTAVYYCARSLARTTAMDYWGQGSLVTVSS[human IgG1 constant region with S440P (EU numbers) omitted here]
light: DIQMTQSPSSLSASVGDRVTITCRASQDISSYLNWYQQKPGKAPKLLIYYTSRLHSGVPSRFSGSGSGTDFTFTISSLQPEDIATYYCQQGNTLPYTFGQGTKVEIKRTVAAPSVFIFPPSDEQLKSGTASVVCLLNNFYPREAKVQWKVDNALQSGNSQESVTEQDSKDSTYSLSSTLTLSKADYEKHKVYACEVTHQGLSSPVTKSFNRGEC

Key:
[1] = target: T1, human TRIM21 PRYSPRY domain with N-terminal 6xHis tag (human); assay: SPR, Ab captured on Protein L, 100 nM hTRIM21
T1 construct: Expressed from pET28a in E. coli; also called hTRIM21
T1 chain: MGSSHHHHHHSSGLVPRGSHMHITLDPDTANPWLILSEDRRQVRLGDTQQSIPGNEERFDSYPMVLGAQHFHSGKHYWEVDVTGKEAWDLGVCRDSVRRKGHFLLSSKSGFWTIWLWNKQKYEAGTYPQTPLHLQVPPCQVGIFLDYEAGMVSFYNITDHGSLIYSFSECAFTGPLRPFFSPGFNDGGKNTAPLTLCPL

[2] = target: T2, human FcRn (human, UniProt P55899 part only; P61769 part only, limits assumed); assay: SPR pH 6.0, Ab captured on Protein L, 1 uM hFcRn
T2 construct: also called hFcRn

[3] = target: T3, mouse TRIM21 PRYSPRY domain with N-terminal 6xHis tag (mouse); assay: SPR, Ab captured on Protein L, 100 nM mTRIM21
T3 construct: Expressed from pET28a in E. coli; also called mTRIM21
T3 chain: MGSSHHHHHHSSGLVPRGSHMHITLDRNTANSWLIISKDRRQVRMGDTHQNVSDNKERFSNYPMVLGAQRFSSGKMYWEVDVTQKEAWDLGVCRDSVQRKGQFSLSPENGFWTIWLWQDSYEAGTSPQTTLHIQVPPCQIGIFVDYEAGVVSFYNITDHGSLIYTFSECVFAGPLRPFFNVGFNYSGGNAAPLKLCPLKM

T2 sequence (P55899 24-290 limits assumed, form in doubt, chain 1 of 2): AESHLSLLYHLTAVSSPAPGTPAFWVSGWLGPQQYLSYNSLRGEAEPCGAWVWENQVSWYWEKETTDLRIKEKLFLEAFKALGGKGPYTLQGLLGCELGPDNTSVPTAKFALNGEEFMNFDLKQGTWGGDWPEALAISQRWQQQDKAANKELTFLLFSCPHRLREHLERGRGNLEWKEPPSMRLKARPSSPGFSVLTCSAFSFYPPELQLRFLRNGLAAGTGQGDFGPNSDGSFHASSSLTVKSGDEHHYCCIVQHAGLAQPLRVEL
T2 sequence (P61769 21-119 limits assumed, form in doubt, chain 2 of 2, further chain): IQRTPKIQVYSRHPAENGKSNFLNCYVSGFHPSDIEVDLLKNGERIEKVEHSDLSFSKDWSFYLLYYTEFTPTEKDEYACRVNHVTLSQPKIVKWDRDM

Row | Binder | hTRIM21 binding level ratio (variant/control antibody) [1] | hFcRn binding level ratio (variant/control antibody) [2] | mTRIM21 binding level ratio (variant/control antibody) [3]
1 | B1 | 0.744 | 0.91 | 2.21
2 | B2 | 0.755 | 0.97 | 2.21
3 | B3 | 0.924 | 0.91 | 1.86
4 | B4 | 0.898 | 0.54 | 2.35
5 | B5 | 1.31 | 0.88 | 2
6 | B6 | 1.04 | 0.94 | 2.62
7 | B7 | 0.755 | 0.96 | 2.3
8 | B8 | 0.528 | 0.95 | 2.8
9 | B9 | 0.96 | 0.93 | 2.27
10 | B10 | 0.999 | 0.97 | 2.55
11 | B11 | 0.905 | 0.95 | 2.18
